Whole data set: some 4,500 sequences, median “median log2 fold change of GCK-ALFA target abundance (FLAG IP / Myc IP barcode read proportion)” near 0.078, cut for the lowest 2% near -0.6. Some of the results follow.
B1: GBRAP_74_6546 (protein)
chain: SEELIKKAKEAKEKKDIEELIKLTREALEKGDKKAAIETLRLLAEAVVENKDEVTYEELEAAAEVIAEALEKIDDLEFSDELFKLIAEVLKLAVEAEKAK
B2: GBRAP_160_4620 (protein)
chain: SEELEEIIELVEEEREFVLEIIDEEDIETARLAFEIESGSIILEAEESEYISDEAVEKIDEIRDKAVETLKANPDASKEEVKKVVTEAFDEIKEIIKEEE
B3: GBRAP_78_6642 (protein)
chain: KVEELIDEAIEKLDEAHRLAQKLPEELRNELLAEIVEAESYLLLAEENGYDLKELKEALKELEEALKLVKKSDHPEAPEIAKELEEAIKLVKEAIKLVEK
B4: GBRAP_160_4748 (protein)
chain: KEELEKLKKEVEEIFEEGIELLRESPASEAPTIVRGTMGEVIMLVMSSEAASDELEEKVAEIADRAEAEAAANADAPVEVHVAILERAREEVLKIIEEAI
B5: GBRAP_160_4813 (protein)
chain: MEEVEKELEEAREDLLETAEASKDLPVADRAKLLEAEGYTEILELEEELNLSDETVDELVKIVDDLVATLLANPDLSDEEVLALVEEAAEKIEEVVLKEA
B6: GBRAP_166_4942 (protein)
chain: ALEKVLKELKAKIEEFEKNIKNLNEEEKFDRIIEIGELIKKAKEAGASDEELVEAIKKVLEAAKKAGFNPAVAAGIIANVADVSEELLDKIWKYVDELKK
B7: GBRAP_78_6661 (protein)
chain: ERKKLLEEAIEHVDKAAKILLKLNTEEALEVLDKLSEARAELVEVELENLGKEALEEALKLLEEARKLLEKYKDKFPEEDYKEIKEHLDKAIKLVKEALK
B8: GBRAP_52_5846 (protein)
chain: MEEEARRIAEELVRLRLEGKEEELEKRIKEIVETKSEEFVFLILEELARLAKEADEETAEAILEVAELLADIAEKAGFDPDKLSYLLARVYAAVYERLQK
B9: GBRAP_137_3619 (protein)
chain: KTVTITFSEEDGTAFATIVASPEVDHEKLEELIEEVAEETGAQLVKAYDEDSETAEFDLVGTPEQIIAATKLLIERLKSEMGAEVVLTSDGAEDLVEAVK
B10: GBRAP_52_6058 (protein)
chain: MEKEIKEIAEKIAEAIKAGDLEKALELLKELIKNKSVEEITETLRLAAELVAKLGEEKHEKFVELLDKVEELMIEAGISEEEALLVVGDAEAALARAVAA
B11: GBRAP_128_3448 (protein)
chain: SAEAIEARAREVAAAFAEKLEEGPEAAADYLIEQLAAADLEEVEAITEAVVEVLRTLDNETAEEVVDLILEKSRSLSPEKRAVVDVILSPLIFELVEKEE
B12: GBRAP_160_4248 (protein)
chain: EERIKKLREDFLAEAEDTLEALLELPRSQWAAIARAMAGNIVQLVIEDPNATDEAEEAVDKLADALVERLLAARDASPEELRALLEEGVAEIVAAYEKLV
B13: GBRAP_11_2622 (protein)
chain: KKEILKKIAELAKEAAELAEKLLKEGVDNEELRKELREKLKELAELVEKHADESSKKDVEIAEELFKEAEEDEENKEEYFKQLLAALRVLAGNFLLEIEE
B14: GBRAP_52_6240 (protein)
chain: MKEEMRKLAEEAYEKVKAGDEEGARKIFKELAETKNDEEIRIFIDELAKLAAKARKEDIDDVWRLTEIASEALEEAGKPDILVDDLEAKTAAALAKVEAK
B15: GBRAP_139_3737 (protein)
chain: SADQEKVAAAAAEAAKLKDDLEAVAEYLVKVVKEVDEETAAAITRAVMEVMAGLPVEKQLELRDLVLEKLEEAGVPEDKITVVEAELNGGLARIAYEQEL
B16: GBRAP_96_7087 (protein)
chain: MLEEVKKLVREAVAARDTDPEKYEALVKELNKYPAELIAKAMVELGLSDEEKVALARALFEDDPSKIGEYLEALIEYDDSSAVSRAAAAAIEIEAERERA
B17: GBRAP_52_5899 (protein)
chain: MEEKAKKLAEEVVEAIKAGDFEKAVELIVDALLNLSSEEVDIFARELRKLLEKTSLEEAERAVEAAEKASEIALEKGADEDDVTLVEDAAETALVLVELA
B18: GBRAP_52_6188 (protein)
chain: MREAIRARLRAIHALVRAGRLDEAAAAAAELVAALDEEELRLLVEVMAELTAEAPLADADAMFRTAEILAAAIEAAGKDEVLAEDLLAAVAAALHAKELA
B19: GBRAP_128_3305 (protein)
chain: MNEERLKEAEELAEKMVEADVEEAAELTREIIELMATATEEERERIAEIMEEKFEELDAEKLDAVADVLREQIPKLDPLVAREVAGMEVEALNRAEEKEE
B20: GBRAP_35_5624 (protein)
chain: DVNKEIADAMVAVLEDTLLAVDTVPAETFLDTAIRVAEAGLEVAKELKEDKENAERILDAVERLLDAALERARRTGAPEEHLERLERLREEARELRKELK
B21: GBRAP_184_5068 (protein)
chain: KTIYETLEVRDLEEARAKVAALAERLKDAKGDLVVHVEMPEADREIIRAVLAGLKAMLDAGYVTSATVGFDAELTEELADFAIEEADRAGVNIVLALSDE
B22: GBRAP_11_2703 (protein)
chain: KKEELKKAAELAEKLAEVIEKLIEEGVDNEELRAEAEKLIEELTKLTKKYGDKALQKLAEIIKELWEKALKDPENAVEYLKELLAAARVLAGQYLLEIEE
B23: GBRAP_52_6273 (protein)
chain: MEEEAKKLAEEALDVVLNKSKEEIKAFAKKLVAENSQELIALTLEIVVEKAKELNLEEIEKLLDFMLILEDELEKAGKDPLPAEDAAARLAGLALEKRAE
B24: GBRAP_160_4572 (protein)
chain: SEELEKLIKEIRELVEEAVEFIEGQSFEQRLAVVRVTVGDILLELEENPEVSEEVEEKADEIGDELIETIEANPELTAEEIKELLRKAAEEIIKLIKEEA
B25: GBRAP_53_6392 (protein)
chain: KEEEIKELVEKLEKLIEELEKADEEEAIKLAKEARKVLVELAKLGLPEEELVKLVRRFAEAASKREELRPVLIELIKDLAALGREDAAAEAAEVLTEELE
B26: GBRAP_184_5093 (protein)
chain: KTLERKIEAKNVEEAKKKLEEVIKEAEEKKANLNVLVDVEGLNVEDAIELIEMVGKAKKEGKVKDATIGFTEEFTEEEVDKIVKKADEEGVKVVLPLKEE
B27: GBRAP_125_3138 (protein)
chain: KREALIELARALMEAAGFSEEEIAEALELARASDPVQTIVAILLAAGFEEAAELWEKVGPKLTEEEAKELTELARELRDAPREEFEERLTEKLKELLEKI
B28: GBRAP_11_2793 (protein)
chain: KKELLKKLAEELRKAAEALKALIAAGLKDEEGWKKARELLKRAEELAREAGDEDTAELLEIALEDLEKAKADPENAQEYLNNALAAVRVAEGLTLLRIEE
B29: GBRAP_117_2575 (protein)
chain: HMTKEEVKEKVRETVKEVIERLKEARKLSPEEREKVLKELRERMTKVVEEALKVLSEEEVLEIVEEALLEADAETYFEAESIVLDALNEVRERRKKEAEE

Target: GABARAP, O95166
Assay: median log2 fold change of GCK-ALFA target abundance (FLAG IP / Myc IP barcode read proportion) (log2 ratio); each designed protein is fused to an ALFA-tag nanobody in HEK293 cells to bring the named protein to FLAG-tagged glucokinase (GCK); Myc marks an untargeted standard; higher = target protein stabilised (more abundant)
Conditions: target protein: 3xFLAG-MCP-GCK-ALFA reporter; HEK293 landing pad (RPLP)
Outline: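 HEK293 landing-pad cells received a recombined binder library fused to the ALFA nanobody and were induced with 2 μg mL^−1 doxycycline, then transfected with a plasmid encoding a FLAG-tagged target and a Myc-tagged standard. Lysates were collected after 48 h for anti-FLAG and anti-Myc immunoprecipitation, and the circular RNA barcodes were reverse transcribed, amplified and sequenced. Target abundance for each binder is the median log2 ratio of FLAG to Myc barcode read proportions. Barcodes had to reach a proportion of at least 10^−7 in both replicates, each binder needed at least 3 barcodes per replicate, a pseudocount of 10^−6 was applied, and the two replicates were pooled.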

Chain of GABARAP, O95166 (O95166 whole entry, the tested form may be a part): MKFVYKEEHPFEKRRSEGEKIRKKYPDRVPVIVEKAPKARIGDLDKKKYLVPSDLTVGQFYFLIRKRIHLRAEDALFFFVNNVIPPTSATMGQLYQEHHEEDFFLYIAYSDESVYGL

Row | Binder | median log2 fold change
1 | B1 | -0.147
2 | B2 | -0.209
3 | B3 | 0.246
4 | B4 | 0.148
5 | B5 | -0.183
6 | B6 | 0.222
7 | B7 | 0.235
8 | B8 | 0.0444
9 | B9 | -0.356
10 | B10 | -0.378
11 | B11 | 0.114
12 | B12 | 0.148
13 | B13 | 0.0325
14 | B14 | 0.249
15 | B15 | 0.25
16 | B16 | 0.145
17 | B17 | -0.159
18 | B18 | 0.0824
19 | B19 | -0.0439
20 | B20 | -0.248
21 | B21 | -0.0866
22 | B22 | 0.258
23 | B23 | 0.369
24 | B24 | -0.141
25 | B25 | 0.0665
26 | B26 | 0.269
27 | B27 | 0.131
28 | B28 | -0.353
29 | B29 | 0.303

Source: the supplement of paper PMC12632987
